Test results reported in the supplement of paper PMC3334620.
The full ranking holds about 33,000 sequences; the median of “E-score (-0.5 to 0.5)” is about -0.04, and the highest 2% start at about 0.36. The list shows a part of the results.

biological target: T1, Hmlalpha2 (UniProt P0CY09); assay: PBM E-score (8-mer binding enrichment) (E-score (-0.5 to 0.5)); higher = stronger / more preferred TF binding; most listed sequences are background and not binding sites; settings: protein concentration: 200 nM; construct: GST-full length
T1 sequence: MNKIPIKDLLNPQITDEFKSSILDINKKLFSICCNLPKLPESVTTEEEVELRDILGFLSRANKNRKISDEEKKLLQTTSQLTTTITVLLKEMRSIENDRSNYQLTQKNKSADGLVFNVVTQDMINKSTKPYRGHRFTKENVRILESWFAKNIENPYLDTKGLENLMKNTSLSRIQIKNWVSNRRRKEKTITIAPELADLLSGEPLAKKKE
Method: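 Universal 'all 10-mer' protein binding microarrays (Agilent AMADID 015681) probed with GST-tagged S. cerevisiae TFs (full-length or DBD) made by in vitro transcription/translation (PURExpress), about 100-200 nM. Bound TF was detected with fluorescent anti-GST. Each ungapped 8-mer (which stands for itself and its reverse complement) is scored by the PBM enrichment score (E-score), a modified Wilcoxon-Mann-Whitney statistic from -0.5 to +0.5, computed with the Universal PBM Analysis Suite. Scale: above 0.35 generally sequence-specific binding.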

Sequence | PBM E-score
ACTTGCTC | -0.136
CATTCACA | 0.165
ACCATAAT | -0.0158
ACCGACGT | -0.0135
GCACGTTA | 0.265
ATCTACTG | 0.0942
CACAGTGA | 0.00389
AACGGTTC | -0.139
CATGTGGG | -0.0335
AAAGACAA | 0.229
ACCTGTTC | 0.177
GTAATAAA | 0.35
AGCACAAT | 0.0685
ACACCATC | 0.0914
CCGGCAAA | -0.015
GTCAGTTA | -0.0473
CAACTTCC | 0.0425
ACCTAGTG | 0.0188
CACAGCTC | -0.016
AGAGACTA | -0.0734
GGCACGAC | 0.0237
AAGATTGG | -0.0247
AAATTCTG | 0.0112
CGTCGTAA | 0.0838
AATGGGTC | -0.273

Sequence | PBM E-score
CACAGATC | -0.0314
CCGATCCC | -0.343
AGTTTGCA | -0.0729
GCGCCATA | -0.0992
AAATGCAG | -0.012
TCAGGGAA | -0.158
TCTTGCCA | -0.0766
CCTATTAG | -0.0352
CCCCATAA | -0.137
CGCTGGCA | -0.0288
AGGGATTC | -0.208
CAGCATCG | -0.153
CCATATGC | -0.104
GCAGGACC | -0.366
CCCATTCG | -0.0725
GCCGGAGC | -0.276
GTTTCCGA | -0.106
CCACTATA | -0.0153
GAAATGAC | 0.0702
AATATGCG | 0.0558
AAGCCCTG | 0.0331
AATTTTGC | 0.0899
AGAATGCC | -0.189
TAGAAATA | 0.172
TGGTCGAA | -0.163

Sequence | PBM E-score
AGTGAACA | 0.154
CGCTTTAG | -0.167
GTTGTTGA | 0.259
GATTTGTA | 0.186
ACCTGTCC | -0.317
CTGGCCAC | -0.134
GATCTATA | 0.144
CAAACCCG | -0.0693
AGTTAGCC | -0.136
ACGGATAG | -0.0714
GGAACTGA | -0.163
CAGCGTCG | 0.0498
ACGGCCGA | 0.0121
GACTAATA | 0.104
CGCTTCTC | -0.23
CCAGAGCC | -0.185
ATGTAAGG | 0.313
ACCGTGAG | -0.152
CTAGATCA | -0.0964
TTAAGGAA | -0.0151
ACACGAAG | 0.358
AGGAAAGG | -0.238
CGTTCAAC | 0.23
CTTGCTGC | -0.105
GATGCAAC | -0.0922

Sequence | PBM E-score
AACTCGAA | 0.0198
AGCTCATC | -0.322
GACGGGCA | -0.113
CGCAGTAC | -0.0774
TCGCCTAA | -0.0805
CCTAACAG | -0.00251
ACGTTATG | 0.268
GCTTATTA | 0.211
CATGGCTA | 0.0496
GGACAGAA | -0.0416
GATTCCGA | -0.282
AAACTAGT | 0.062
CGCTCTTC | -0.315
AAAGATTA | 0.156
ATGAGCGC | -0.141
ATACGAGG | -0.121
AGCCGCGA | -0.289
GGACGATA | -0.141
CGTCGCGC | -0.238
CATCCCGC | -0.167
ACTCGCCG | -0.0204
GTACACCA | 0.089
CAGACTCA | -0.0714
GACCCGCC | 0.0617
AATCAGGA | -0.182

Sequence | PBM E-score
AGCGTAGA | -0.119
AGCTGCCC | -0.0944
ATAAGTGA | -0.0374
GCCAATAC | 0.114
ATCACATG | 0.306
ACAACGGA | 0.172
CCCCTCGG | -0.158
AGATGGCT | -0.206
AAGCTCAC | 0.00292
ACCACGAC | -0.0364
ATTCATTG | 0.0908
GCTTGCGA | 0.0419
CTGATCCC | -0.259
CTACATAG | 0.406
ACATGGTG | 0.414
AAGAGCAT | 0.114
CTCGAGGA | -0.0547
ACGGGACC | -0.0882
ATGGCAAG | -0.153
AGTATCAG | -0.0806
CCCGAACG | -0.193
CAAAATGG | -0.166
AGCGCTTC | -0.0987
ACCCGGGT | -0.278
CACTTGGG | -0.131

Sequence | PBM E-score
TAACGGAA | 0.0633
CCCCCTTC | -0.428
CGTTACGC | 0.204
TGCCACAA | 0.036
CAACATTC | 0.036
CTAAAAGC | -0.293
AAATGTTC | 0.064
AACCCATG | 0.154
ATTCCGCA | -0.0371
CTTTGAGA | 0.115
ATACAAGG | 0.295
AAACGCCC | -0.192
ATGCATCA | 0.191
CACAACTC | 0.0225
CAAACAAG | 0.0478
GCATCTCA | -0.0376
CTTTATCA | 0.0563
GCAGCGCA | -0.137
ACAGCATA | 0.0944
AGTTTACC | 0.075
ACCGGCAA | -0.114
CAGATGAA | 0.0555
AACAGCCG | -0.0483
GACGACAC | 0.0469
CAAAGATC | 0.166

Sequence | PBM E-score
AATGTCAG | 0.0789
ACTCTCTA | -0.132
GCCGACGC | -0.106
CAAAGGGG | -0.115
AGATTCAG | -0.0179
CCTAGGCC | -0.269
CGGAGTGA | -0.017
AGCCAGCG | -0.231
ACTCTCCT | -0.223
GCAGCGAA | 0.11
ATTCTAGG | 0.137
CTACAGAC | 0.024
AGGAACAG | -0.102
ATCATCTA | -0.143
ACCCAGCA | 0.0344
ATCCTAAT | -0.0163
CACCCAGA | -0.106
CCTTGTTC | -0.0497
ATAGTGAC | -0.0497
CATTGGCG | -0.0178
ATGACGTA | 0.258
ATGGTTGC | -0.21
